The text below walks through data of ChEMBL document CHEMBL4888484, “Replenishing the malaria drug discovery pipeline: Screening and hit evaluation of the MMV Hit Generation Library 1 (HGL1) against asexual blood stage Plasmodium falciparum ,using a nano luciferase reporter read-out” (2022).

The structures appear in SMILES notation. The campaign covered roughly 150,000 compounds. About 540 (0.36%) showed an effect of 50% or more. This is one part of the list.

This assay has as its system Plasmodium falciparum. In words: Primary screen in NF54 nanoGlo assay, in single point, at 2uM, 72h; a lower Z score goes with more inhibition. Particulars: timepoint 72 hour. It counts as functional, Erythrocyte.
In the case of `O=C(NC1CCCCCC1)NC1CCCCCC1`, the % Inhibition (in general, the relative decrease from the control value, in per cent) is recorded as -4% and the Z score was 0.65.
Take `COc1ccc(CC[C@H](C)N2CCN(c3cccc(C)c3C)CC2)cc1`: the “% Inhibition” value was 1% and the Z score is -0.09.
With `Cn1ccc(C2CCN(c3ccc(C(N)=O)nn3)CC2)n1`, the “% Inhibition” value was -16% and the Z score came to 2.69.
For `O=C(c1cncc(F)c1)N(C1CCCCC1)[C@H]1CCS(=O)(=O)C1`, the “% Inhibition” value is given as 0% and the Z score came to 0.01.
In the case of `O=C1N(CC2CC2)CCC[C@@]12CCN(Cc1cc3ccccc3o1)C2`, the “% Inhibition” value amounted to 7% and the Z score is -0.89.
In the case of `CN(C)c1ccc(/C=C2/CCCC3C2=NN(c2ccccc2)C3c2ccccc2)cc1` (configuration not stated), the “% Inhibition” value is on record as -1% and the Z score is on record as 0.17.
On to `Cc1cc(C)nc(NC(=O)c2cnn(-c3cccnc3)c2)c1`, for which the “% Inhibition” value was -3% and the Z score is 0.5.
On the same counts, the results for `CCc1cnc(CN(C)C(=O)N[C@@H](CC)c2nc(C)cs2)s1` are -20% and 1.66.
On to `CC(=O)NCCC(=O)Nc1ccc(C)c(Cl)c1`, for which the “% Inhibition” value is given as -3% and the Z score was 0.41.
For `C[C@@H](CCC(=O)NC1(c2cc(F)cc(F)c2)CC1)N1CCCC1`, the “% Inhibition” value is given as -14% and the Z score is listed as 1.36.
For `Cc1cc(C)nc(-n2[nH]c(C(=O)N(C)[C@@H](C)c3ccccc3)c(CCO)c2=O)n1` the same measures were -12% and 2.02.
For the compound `CCCn1cc(NC(C)CC2COCCN2C(=O)OC(C)(C)C)cn1` (configuration not stated), the “% Inhibition” value is -8% and the Z score worked out at 0.71.
On to `Cc1ncsc1CCS(=O)(=O)C[C@H]1CCCO1`, for which the “% Inhibition” value is reported as -7% and the Z score is on record as 0.84.
On to `CCc1ccc(-c2nccn2CCc2nc(C)c(C)s2)nc1`, for which the “% Inhibition” value amounted to 4% and the Z score was -0.46.
On to `COC1CS(=O)(=O)CC1NC(=O)Nc1cnc(CC2CC2)nc1` (configuration not stated), for which the “% Inhibition” value is recorded as -9% and the Z score was 1.43.
With `CCc1cc(NC(=O)c2c(CC)noc2C)nc(C)n1`, the “% Inhibition” value turned out to be 14% and the Z score is listed as -1.74.
On the same counts, the results for `COc1cc(=O)n(-c2ccccc2)cc1C(=O)NC1CC2CCC(C1)N2S(C)(=O)=O` (configuration not stated) are -26% and 4.38.
As to `CC1(C)CCC[C@@]2(C1)NC(=O)N(CC(=O)Nc1ccc3c(c1)CCC(=O)N3)C2=O`, the “% Inhibition” value is given as -11% and the Z score is 1.4.
`O=C(O)c1cccc(N[C@H]2CCN(S(=O)(=O)c3ccccc3)C2)n1`: the “% Inhibition” value is -17% and the Z score stood at 3.2.
For `Cc1ccccc1CNC(=O)N1CC[C@]2(CC(=O)NC2=O)C1`, the “% Inhibition” value is -9% and the Z score is reported as 1.3.
Turning to `CC(CNC(C)c1ccc(-n2cnnn2)cc1)c1cccs1` (configuration not stated), the “% Inhibition” value is recorded as -14% and the Z score was 1.16.
Turning to `COc1ccc(OCCNC2CCCC(C)C2C)cc1` (configuration not stated), the “% Inhibition” value was 2% and the Z score is -0.24.
Regarding `CCCc1ccc(S(=O)(=O)N2CCN(Cc3nc4cccnc4n3-c3ccc(C)cc3)CC2)cc1`, the “% Inhibition” value is given as -13% and the Z score is 1.73.
For `O=C(Nc1cccc(Cl)c1)C(=O)c1cccn1Cc1ccccc1` the same measures were 8% and -1.38.
Regarding `COc1ccc2[nH]c3c(c2c1)CCN(C(=O)Nc1cc(C)ccc1OC)[C@@H]3c1ccc(C)cc1`, the “% Inhibition” value is on record as 12% and the Z score is -1.43.
For the compound `CC(C)C(Cn1cccn1)NCC1CCCN1CCc1ccccc1` (configuration not stated), the “% Inhibition” value was -9% and the Z score stood at 1.06.
On the same counts, the results for `CN(CC1(CO)CCOCC1)C(=O)Nc1cccc(-c2cnc[nH]2)c1` are -16% and 1.6.
On to `Cc1nscc1C(=O)N1CCC[C@H](NCc2ccccc2)C1`, for which the “% Inhibition” value was -12% and the Z score came to 1.6.
As for `CNC(=O)[C@@H](C)CN(C)Cc1ccccc1-c1ccnn1C`, the “% Inhibition” value is reported as -16% and the Z score is listed as 1.77.
For `COc1ccc(-c2nc(C)c(C(=O)NCc3c(C)nn(C)c3C)s2)cc1OC` the same measures were -15% and 1.83.
Regarding `Cc1nonc1CN(C)c1ccc(-c2nc(-c3cccc(Cl)c3)no2)cn1`, the “% Inhibition” value is -23% and the Z score was determined as 2.17.
With `CN(CCN1C(=O)NC2(CCCC2)C1=O)[C@H]1CCN(CC(F)(F)F)C1=O`, the “% Inhibition” value is reported as -8% and the Z score is given as 1.06.
On to `NC(=O)c1cc(C2CCCN(CC(O)c3ccccc3F)C2)n[nH]1` (configuration not stated), for which the “% Inhibition” value is listed as -8% and the Z score stood at 1.23.
As to `CC(CC(=O)O)N1CCN(C(=O)C2CCc3ccccc3C2)CC1` (configuration not stated), the “% Inhibition” value is recorded as -10% and the Z score is recorded as 1.25.
On to `CN(C)c1ccc(CN[C@H]2CC(C)(C)[C@@H]3C[C@@](C)(O)CC[C@]23CCC(=O)N2CCOCC2)cc1`, for which the “% Inhibition” value came to 10% and the Z score was -1.16.
As to `Cc1cc(C)cc(CN2C(=O)C(=O)N(c3ccc(C)cc3C)C2=O)c1`, the “% Inhibition” value is on record as -13% and the Z score is on record as 1.55.
Turning to `CCC[C@]1(CO)CCCN(C(=O)c2nnc3n2CCCCC3)C1`, the “% Inhibition” value is on record as -3% and the Z score came to 0.65.
As to `CCc1cnc(Cn2c(=O)c3c(C(F)(F)F)cc(C)nc3n2C)o1`, the “% Inhibition” value is on record as -7% and the Z score is reported as 0.8.
Regarding `N#Cc1c(-c2cccn2-c2ncccn2)cc(C2CCC2)nc1N`, the “% Inhibition” value is -15% and the Z score is recorded as 1.61.
For `C[C@H](NC(=O)CCN1C(=O)c2nccnc2C1=O)c1nc2ccccc2n1C` the same measures were 4% and -0.52.
For the compound `COc1ccc(NC(=O)c2c([O-])n(-c3ccc(OC)cc3)n[n+]2CC#N)cc1`, the “% Inhibition” value came to 13% and the Z score is reported as -2.09.
